From the supplement of paper PMC12632987
Over roughly 4,500 sequences, “median log2 fold change of GCK-ALFA target abundance (FLAG IP / Myc IP barcode read proportion)” has its median near 0.078; the lowest 2% begin near -0.6. Some of the results follow.

B1: GBRAP_78_6740 (protein)
chain: ELEELLDKAREHIDKARELIKQLDPETQNELLGLLTDALSDLYLFETEGPNLEYLERAIEHLEKALELLKQIDTPVAKKAAEELEKAIEYLKKAKELLKE
B2: GBRAP_128_3498 (protein)
chain: SMEEAVARTRELMEEIARASPEETRELTRELVALIASVDRETAEAMAEAVEERLPELSAEALDVVADTLRELRPTVDPYTANLLAGIQVEALNRLEELEE
B3: GBRAP_83_6910 (protein)
chain: KEKVAVATTGDHIEEAVDAVIDLTKEEGYEVDLEIITTKEEREKVLEAVERLAKEGIETKVTVLLFGATEEEAEELLKELKEIAKKHGVNIEIEVILIEE
B4: GBRAP_184_5362 (protein)
chain: EVENRSVDVETKEEAEEKLEKERERIRKEKKPTNLYVFLKNASLETVETAAKLLAELKEEGLIKRGIIVLDDEVSEEELDKRVAIADKYGVQLVAALKDE
B5: GBRAP_160_4704 (protein)
chain: SATAEKLKKYVEEEFKKAKELIKGETKEQKAIILEGTIGEILMELAEDENATDELEEEVDKIGDELVEKILADENITEEELKKLIEEAVEKMKEAIDKHL
B6: GBRAP_96_7104 (protein)
chain: MLEEAEELVKELIEALDKDEEKAKELAKKLLEFPVEVVTEALVKVVKDPEDARKLAEVLLSLKDEKAEEVLLEAAEKSDSEISKAIIEAMEEFEKKEEAE
B7: GBRAP_160_4389 (protein)
chain: SSGFKKLKKSVKDILEEAKKLIEGESKEERKVIVRVALGEIRMEVFSNDEVSDEGEEKIDKILDEGEKKIEEAIEKGLEEVKKKIEELEKKLLEEIEKLE
B8: GBRAP_166_4958 (protein)
chain: SKEDVIKETKKKIEELAEKMKDANPEEQLELQIEIAEAIQEAKEKGLSKEEILELIELALKLVKEAGGNVEQFLGVISMFVDLDEEELDKIEEIAKKVKE
B9: GBRAP_14_3812 (protein)
chain: KEELIKEIKKILEELKKELVEELGLDPEKVKALVEEAEEKIEEAILTEEDPEEKVEEIFDELKAKVAALAAALGADVAAAARALVTDAEHEVLELIEKKK
B10: GBRAP_78_6711 (protein)
chain: EIEELIDKAIELLNKAARLALKLPEERSNEILDLLVDAITLLMETLEEGMEQEEKIKKLEEAIALVEKALKLLKPEDKELRELLEKAKELLEKALKLAKK
B11: GBRAP_125_3023 (protein)
chain: SEEELVENLKLIARALGFSEGDVEELGENARKYGIKGALIALFLAEGLEEEAELAEKLTEEEVKEVVKEVAEYLKKHPDATPEEVKEKIKEVLEKAVKKS
B12: GBRAP_166_4900 (protein)
chain: MVEEAIKRIEELAADTIARIADLSDEELLERFVEMAEIAEEAGPTPELRAALAAAFARVLAAAEAAGKDPETVRNLILAAVGDNEKLLDAVEAALDAAAA
B13: GBRAP_160_4124 (protein)
chain: MEKEKKTLLDNAEDVEETIEIMEDLSPEEARTLAIVTLGQILLDNDELDDKFPEIDKLSEEAIEELRETAKTDPEKLKEVSLEKLKEIKELLKKKAKELE
B14: GBRAP_39_5640 (protein)
chain: SEEEEAEETYSYLEALGAKLLVDEKISLDELLARTLAYARARFADDPELLALIDELEALAAAGDEMDKLALVGALSLAERGESRETIREHLELLIRYLKS
B15: GBRAP_160_4032 (protein)
chain: KEKIEKLKEYSKELFAEAKEMIEGLSAEQRANLFDVTMGEIIMEAVELGIDNEDLEDHIDELGDKGRATILANPDLTLAEVKALLDAAEKEVLKKIEEIK
B16: GBRAP_160_4208 (protein)
chain: SELIEKIIEELEEATEEVIAALPEVSVEEAANLADVEYGSVLMEAVEAGLENDEILDTIAEAGDRVVAALRALADASDEERRARLRAITEEAKKKIKEIA
B17: GBRAP_96_7085 (protein)
chain: VSPELLALVRAVREAARTDRERLLALLRELSEYSEDEIEAAFKEVEFTPEEVAAIAEAARELGEEKAEKLLLALAEAAVEKGDTEQVRVVIEAAERLERE
B18: GBRAP_128_3418 (protein)
chain: SMEEKVARVKELLEKMLTASPEEQKKIADEIMELMKEADLETAEAMAEVVLKMLPKFTAEQLDILADAARKHLSEFTPEKQNLVAEVEVEALNEAEELEE
B19: GBRAP_160_4436 (protein)
chain: SEKVEEAKKKIKEIVEEAAKMMEGESAEQRIVVVRVAEGEILLELDELGLLTDEIDKVIEEEFKKIIDYIKANPNISQEELKKLLEEAEKKIIEELDKKF
B20: GBRAP_52_6046 (protein)
chain: MEEEARKLAKELLELVLEGKEEEARKLAREIAETKNEEEILKIAEELAKLVLEGDKETAEAGIKAAEIMAEELEKAGRDEGLADLILATVYGAAYKRLQK
B21: GBRAP_128_3570 (protein)
chain: SSEETLAKAEELIQKIIESDLETARKYAEELVALMASSDPETREKITEMVLKALPKLSVEKLEILADVFREKRPSLDPFTANLLADVQVEALNEAEEKEE
B22: GBRAP_186_5379 (protein)
chain: EEELEEREDEIIDELEAEGYTVIVTYLEGLSLEETKEAMKRDAEAVAALSKETGKKWALVVVVITKKEDVEEIEEFAKELNEEYLKKTGVVVRAAVGSSD
B23: GBRAP_166_4959 (protein)
chain: SLEEVRARLEAALAAFEAEGASLSLEERRDRLVEIAELLGEAARAGLPREELLEAAVRLLLLARAAGLSPAFVEAALVNIAGLPVELVDEALARAEALAA
B24: GBRAP_125_3034 (protein)
chain: AAAALAAALATIAAALGLSADDVEELVALARAHGVKGAMIALALAEGNEELADLLAKLSEAEVAAVAAELAAWLAAHPDATPEEVLERWLELAREAVARS
B25: GBRAP_9_7130 (protein)
chain: REELVEKLAEVVKEMIEDIKKAVPELTEEQAEKFKKKVEELKKELLADKTATPEEIAKKFLELVKEIEEEVKKIVNEEEKKIVEAIALTAEEEIEEIVEE
B26: GBRAP_39_5699 (protein)
chain: EEEEELEIEFSYYEAVGAKYMYEKNISLEEAIKEALKIFEKIEKEHPELKPLMEKLKEILENGDEESRIAAIGIAVSYEEGMPLEEFKEKAEKLIKYVEK
B27: GBRAP_78_6710 (protein)
chain: DLEEAIDAAIDALGEAARLSLSLPEDIRTELLDHLIDAQELLWEIEEGEATEEDIKELKEEVKKAKEIAEKNKDKLSPELIKAVKEAAEKTEKAIELLKK
B28: GBRAP_83_6939 (protein)
chain: AEKVVVAAPGDKVEEAVEIALDLKEEEGYEVSLEIIFSKEEAEKVIEKIGELIEKGFEGEITLISTDNDEELAEEVKEKIKELAKKYGKNVKVEAYVIEP
B29: GBRAP_160_4361 (protein)
chain: SEELKKLAEEIRELREEFEEEAKNLSPEEVRILAIGELSEVAALIFHNEAVSEETEEKIMEIIDEAIEKIKENENASPEEIVEITNEAFEEIIKLVEEEA

target: GABARAP, O95166; assay: median log2 fold change of GCK-ALFA target abundance (FLAG IP / Myc IP barcode read proportion) (log2 ratio); each designed protein is fused to an ALFA-tag nanobody in HEK293 cells to bring the named protein to FLAG-tagged glucokinase (GCK); Myc marks an untargeted standard; higher = target protein stabilised (more abundant); settings: target protein: 3xFLAG-MCP-GCK-ALFA reporter; HEK293 landing pad (RPLP)
Summary of the method: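 Sequencing of reverse-transcribed, amplified circular RNA barcodes from anti-FLAG and anti-Myc immunoprecipitates provided the readout for an ALFA-nanobody-fused binder library recombined into HEK293 landing-pad cells. Those cells were induced with 2 μg mL^−1 doxycycline, transfected with a plasmid expressing a FLAG-tagged target and a Myc-tagged standard, and lysed after 48 h. Target abundance is the per-binder median log2 ratio of FLAG to Myc barcode read proportions. Only barcodes at a proportion of ≥10^−7 in both replicates and binders with ≥3 barcodes per replicate were kept, with a 10^−6 pseudocount added before the two replicates were pooled.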

Chain of GABARAP, O95166 (O95166 whole entry, the tested form may be a part): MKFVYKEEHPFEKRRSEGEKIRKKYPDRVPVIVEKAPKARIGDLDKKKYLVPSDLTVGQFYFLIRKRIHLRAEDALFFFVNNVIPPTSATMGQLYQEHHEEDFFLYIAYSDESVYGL

Binder | median log2 fold change
B1 | 0.164
B2 | 0.161
B3 | 0.197
B4 | 0.011
B5 | 0.0257
B6 | 0.23
B7 | -0.0235
B8 | 0.272
B9 | 0.358
B10 | 0.169
B11 | 0.178
B12 | 0.184
B13 | 0.065
B14 | 0.0667
B15 | -0.185
B16 | -0.199
B17 | 0.229
B18 | -0.503
B19 | -0.371
B20 | -0.00871
B21 | 0.164
B22 | -0.196
B23 | 0.117
B24 | -0.0489
B25 | 0.208
B26 | 0.297
B27 | -0.0699
B28 | -0.184
B29 | -0.212
